Measured values: the supplement of paper PMC9046079
Where a name gives a salt, the structure may show the parent alone. ± gives the standard deviation of the averaged measurements. This is one part of the list.

Tested on: murine small intestinal organoids (ENR+CD Paneth differentiation)
Test: basal (non-stimulated) secreted lysozyme activity relative to plate median (log10 fold change); higher = more Paneth cell lysozyme secretion
Details: 2 µM; 6 d
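Note: ISC-enriched organoid precursors grown as 2.5D pseudo-monolayer on Matrigel, compound given on day 0 and day 3, plate values LOESS-normalized before median fold change, three murine donors.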

| SMILES | basal (log10) |
| --- | --- |
| CC(NC(=O)C(O)c1cc(F)cc(F)c1)C(=O)NC1C(=O)N(C)c2ccccc2-c2ccccc21 (centres undefined) | -0.0687 ± 0.052 |
| O=C(NCc1cccc(O)c1)Nc1nc(-c2ccncc2)cs1 | 0.00159 ± 0.061 |
| COc1cc2nc(N3CCN(C(=O)C4COc5ccccc5O4)CC3)nc(N)c2cc1OC (centres undefined) [Doxazosin Mesylate] | 0.0474 ± 0.041 |
| CC(C)Oc1ccc(-c2cnc3c(-c4ccnc5ccccc45)cnn3c2)cc1 | 0.0143 ± 0.11 |
| CCc1nc(N)nc(N)c1-c1ccc(Cl)cc1 [Pyrimethamine] | -0.0678 ± 0.087 |
| CS(=O)(=O)N1CCN(Cc2cc3nc(-c4cccc5[nH]ncc45)nc(N4CCOCC4)c3s2)CC1 | -0.128 ± 0.056 |
| Cc1ccc(S(=O)(=O)n2c(N)nc3ccccc32)cc1 [ML130 (Nodinitib-1)] | 0.173 ± 0.27 |
| C=CC(=O)Nc1cccc(Nc2nc(Nc3ccc(OCCOC)cc3)ncc2F)c1 | -0.112 ± 0.064 |
| CC(C)C[C@H](NC(=O)[C@H](Cc1ccccc1)NC(=O)c1cnccn1)B(O)O [Bortezomib (PS-341)] | -0.133 ± 0.056 |
| CC(C)(C)c1cc(NC(=O)Nc2ccc(-c3cn4c(n3)sc3cc(OCCN5CCOCC5)ccc34)cc2)no1 [Quizartinib (AC220)] | -0.0217 ± 0.056 |
| O=C(/C=C/n1cnc(-c2cc(C(F)(F)F)cc(C(F)(F)F)c2)n1)N1CC(F)(F)C1 | -0.224 ± 0.099 |
| Cn1cc(/C=C2\C(=O)Nc3cccnc32)c2ccccc21 | 0.117 ± 0.012 |
| N#CC1(c2ccc(NC(=O)c3cccnc3NCc3ccncc3)cc2)CCCC1 [Apatinib] | 0.0758 ± 0.087 |
| NC(=O)c1cccc(-c2cccc(OC(=O)NC3CCCCC3)c2)c1 | -0.00833 ± 0.09 |
